Measured values as given in the supplement of paper PMC10126150.
Values marked as one replicate rest on one cluster of the flow cell; about a third of the high ones do not repeat.

system: ATP; assay: switch fluorescence ratio, 500 uM ATP over buffer (Cy3 cluster intensity, sum of 5 cycles each) (fold (ratio)); higher = stronger signal-on switching upon ATP binding; sequences stand for … in TCGTCGGCAGCGTCAGATGTGTATAAGAGACAGTTTTTTTTTTTTTTTTTTTTTTTTT…TC; details: aptamer strand: ATP DNA aptamer (quencher-CACCTGGGGGAGTATTGCGGAGGAAGG + anchor), 100 nM annealed; ATP concentration: 500 uM; one replicate
In short: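 Cy3-labelled switching-strand clusters on a modified Illumina MiSeq flow-cell were annealed to 100 nM quencher-labelled ATP aptamer, imaged in selection buffer, then imaged after 15 min with 500 uM ATP at 22 °C. Five buffer/ATP cycles ran, with NaOH stripping and re-annealing between them. The fluorescence ratio is summed target-cycle over summed buffer-cycle Cy3 intensity per cluster, averaged per switch-domain sequence. Clusters outside 100-1000 RFU were excluded.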
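Also: ATP exposure 15 min at 22 °C before imaging.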

Sequence | switch fluorescence ratio
TGCCTTTAGG | 0.975
TGCGAAGGGC | 1.01
TGCGAATACA | 1.15
TGCGACCTGT | 0.996
TGCGAGCAAG | 1.02
TGCGAGCGGC | 1.04
TGCGAGTGGT | 1.02
TGCGATAA | 2.2
TGCGATATG | 1.66
TGCGATGCAT | 1.11
TGCGATGCCC | 1.03
TGCGCAACGC | 1.52
TGCGCCACGT | 1.03
TGCGCGGTTG | 1.02
TGCGCTAAGT | 1.03
TGCGCTGCTG | 0.969
TGCGCTTTAG | 0.961
TGCGGACCTG | 1.06
TGCGGAGTTC | 1.02
TGCGGCAACG | 0.976
TGCGGGCATC | 0.987
TGCGGTATTG | 1.02
TGCGTCCCCG | 0.991
TGCGTCCGCG | 1.16
TGCGTCGACT | 0.968
TGCGTCTAAA | 0.98

Sequence | switch fluorescence ratio
TGCGTTTAGT | 1.03
TGCTAACATT | 1
TGCTAGACGC | 1.04
TGCTAGACGG | 1.02
TGCTAGAGGT | 1.06
TGCTAGCAA | 1.02
TGCTAGTACA | 1.02
TGCTATATAG | 0.991
TGCTATCCAA | 1.01
TGCTATGCTT | 1.05
TGCTATTCGA | 1.01
TGCTCAACTC | 1.02
TGCTCAGAGA | 1.04
TGCTCCCCGC | 1.42
TGCTCCTTCG | 1.37
TGCTCGTTGG | 1
TGCTCGTTT | 1.06
TGCTCTATGG | 0.952
TGCTCTGGAA | 2.44
TGCTGAAAAA | 0.974
TGCTGAATAT | 0.996
TGCTGACGTG | 1
TGCTGAGGGT | 1
TGCTGCGTTG | 0.979
TGCTGCTAAC | 1.18
TGCTGCTGC | 0.924

Sequence | switch fluorescence ratio
TGCTGGACCT | 1.16
TGCTGGCCCA | 1.09
TGCTGGTG | 1.03
TGCTGTTCGC | 0.961
TGCTGTTCGT | 1.02
TGCTGTTTCT | 0.961
TGCTGTTTTA | 1.01
TGCTTAGTCA | 1.01
TGCTTATCGT | 1.04
TGCTTCATGC | 1.03
TGCTTCCGGG | 1.27
TGCTTGAATA | 0.997
TGCTTGATAT | 0.995
TGCTTGGACG | 1.03
TGCTTGTGGT | 0.969
TGCTTTACGT | 1.01
TGCTTTACTC | 1.64
TGCTTTCCCA | 0.988
TGCTTTGTCG | 1.02
TGCTTTGTGA | 1.02
TGCTTTTCAG | 0.998
TGCTTTTCCA | 0.993
TGGAAAGATA | 1.06
TGGAAATACC | 1.3
TGGAACGAGG | 1
